Hit rate of the full screen: of about 110,000 compounds, about 230 (0.21%) showed an effect of 50% or more. Some of the results follow.
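Note: 30 min substrate incubation versus DMSO and 10 µM JCP410 controls.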

For this assay, the target named is DPAP1 (Plasmodium falciparum, UniProt Q8IIJ9). Kind of assay: primary screen, percent inhibition; read by cleavage of a fluorogenic dipeptide substrate; higher = more effect of the substance. Also noted: species or system P. falciparum D10 trophozoite lysates; single well.
Chain of DPAP1 (Q8IIJ9 whole entry, looked up): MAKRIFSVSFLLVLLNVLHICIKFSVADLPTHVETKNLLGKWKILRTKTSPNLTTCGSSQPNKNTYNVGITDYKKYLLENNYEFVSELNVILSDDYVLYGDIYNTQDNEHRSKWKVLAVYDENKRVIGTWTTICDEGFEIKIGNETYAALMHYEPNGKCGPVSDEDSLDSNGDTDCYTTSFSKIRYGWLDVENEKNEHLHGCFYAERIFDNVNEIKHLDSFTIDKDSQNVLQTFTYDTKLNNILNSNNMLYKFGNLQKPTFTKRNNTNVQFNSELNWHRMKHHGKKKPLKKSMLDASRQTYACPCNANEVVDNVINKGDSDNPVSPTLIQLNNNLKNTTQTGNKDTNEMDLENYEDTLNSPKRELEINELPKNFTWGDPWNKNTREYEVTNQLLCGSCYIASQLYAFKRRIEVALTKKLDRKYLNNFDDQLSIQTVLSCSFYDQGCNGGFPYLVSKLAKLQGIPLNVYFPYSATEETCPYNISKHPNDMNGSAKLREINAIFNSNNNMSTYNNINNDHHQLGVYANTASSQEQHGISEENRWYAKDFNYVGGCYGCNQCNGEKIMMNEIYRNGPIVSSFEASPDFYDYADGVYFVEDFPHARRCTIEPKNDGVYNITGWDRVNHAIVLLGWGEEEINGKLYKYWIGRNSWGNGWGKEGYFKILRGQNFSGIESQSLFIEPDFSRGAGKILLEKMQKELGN
Regarding `Cc1ccc(Oc2nc3c(C)cccn3c(=O)c2/C=C(\C#N)C(=O)N2CCCCC2)cc1`, the “% Inhibition @ 10 uM” value amounted to 3.63%. Take `O=C(CSc1ccc2nnc(-c3cccc(F)c3)n2n1)NCc1ccccc1`: the “% Inhibition @ 10 uM” value is reported as 5.09%. Under `CCn1c(SCC(=O)c2ccc(OC)cc2)nc2sc(C)c(C)c2c1=O` stands -2.53%.

In the case of `CC(=O)NCCNc1nc2c(S(=O)(=O)c3ccc(C)cc3)nnn2c2ccccc12`, the “% Inhibition @ 10 uM” value is -1.37%. With `O=C1C2(c3ccccc3)CN3CC1(c1ccccc1)CN(C2)C3c1cccnc1` (stereo not drawn) the figure was -1.47%; with `CCCCCSc1nc(N2CCOCC2)c2c(c1C#N)CCCC2`, -4.7%; with `CCOc1ccccc1NC(=O)CN(c1cc(C)ccc1C)S(=O)(=O)c1ccccc1`, 3.66%. With `O=C(NCc1ccccc1)c1cc2ccccc2s1` the figure was -6.44%. With `COc1cccc(C2=NOC(C(=O)NCc3ccc(F)cc3)C2)c1OC` (stereo not drawn) the figure was -2.16%; with `O=[N+]([O-])c1ccccc1S(=O)(=O)NC1CCCC1`, -0.999%. Regarding `O=C1c2ccccc2C(=O)N1CCOc1cccc(Cl)c1`, the “% Inhibition @ 10 uM” value was -10.2%.

As to `COc1ccc(NC(=O)c2c(NCc3cccs3)sc3c2CCC3)c(OC)c1`, the “% Inhibition @ 10 uM” value is given as 1.71%. With `C=CCc1c(C)nc2nc(SCC(=O)NCc3ccccc3)nn2c1C` the figure was -7.85%.

For `CCc1nc(C)cc(CN(C)C)c1O`, the “% Inhibition @ 10 uM” value is given as -6.52%. With `O=C(NCCc1nc(-c2ccccc2)cs1)C1(c2ccccc2)CC1` the figure was 0.503%.

On to `Cn1c(=O)c2c(nc(O)n2Cc2ccc(Cl)cc2Cl)n(C)c1=O`, for which the “% Inhibition @ 10 uM” value amounted to 3.27%. For `CCn1c(Oc2ccc(Oc3ncc(Cl)cc3Cl)cc2)nc2c1c(=O)n(C)c(=O)n2C`, the “% Inhibition @ 10 uM” value is reported as -4.91%. Regarding `Cn1nc(-c2ccc(C(F)(F)F)cc2)nc2c(=O)n(C)c(=O)nc1-2`, the “% Inhibition @ 10 uM” value is 0.569%. With `CC(=O)N1N=C(C)CC1c1ccc(OCc2ccccc2)cc1` (stereo not drawn) the figure was 10.9%; with `CC1(C)Cc2nc3sc4c(NCC5CCCO5)ncnc4c3cc2CO1` (stereo not drawn), 2.56%. Under `Cc1cc(O)n2ncc(C(=O)O)c2n1` stands 0.635%; under `COc1ccc(CCNC(=O)CCn2c(=O)c3cccn3c3cccnc32)c(OC)c1`, 0.951%; under `Cc1ccc(-c2csc(NC(=O)c3ccc4c(c3)OCO4)n2)cc1`, -3.75%. For `CC(CNC(=O)c1cnc(N2CCCC2)nc1)c1ccccc1` (stereo not drawn), the “% Inhibition @ 10 uM” value is 0.44%.

As to `Cc1cc(C)cc(NC(=O)CN(c2cccc(C(F)(F)F)c2)S(C)(=O)=O)c1`, the “% Inhibition @ 10 uM” value was -1.65%. Under `COc1ccc(CNC(=O)CN(c2ccc(OC)c(Cl)c2)S(C)(=O)=O)cc1` stands 2.6%; under `O=C(COc1ccccc1F)N1CCc2ccccc2C1`, 4.33%; under `COc1ccc(C(=O)Nc2ccc(-c3noc(-c4ccc(F)cc4)n3)cc2)cc1`, -7.62%. With `COCc1cc(C)nc(SCC(=O)Nc2cc(C)c(C)cc2Br)c1C#N` the figure was -2.24%.

Take `COc1ccc2nc3sc(C(=O)NCCCN4CCc5ccccc5C4)cc3cc2c1`: the “% Inhibition @ 10 uM” value was 64.7%. As for `O=[N+]([O-])c1cc(C(F)(F)F)ccc1-n1cncn1`, the “% Inhibition @ 10 uM” value came out at 2.47%.

For the compound `O=C(COc1ccc(S(=O)(=O)NCc2ccccc2)cc1)Nc1ccc(Cl)c(Cl)c1`, the “% Inhibition @ 10 uM” value was -2.29%. `Oc1ccccc1C1CC(c2ccccc2)=NN1` (stereo not drawn): the “% Inhibition @ 10 uM” value is reported as -0.424%. With `CC(=O)N(CCCN(C)C)c1nc2cc3c(cc2s1)OCO3` the figure was -1.07%; with `CCN(CCCNC(=O)c1ccc2nc(N3CCCCC3)sc2c1)Cc1ccccc1`, 1.03%; with `O/C(=C\c1nc2nonc2nc1O)c1ccc(Cl)cc1`, 2.97%.

In the case of `COc1cccc(C2CC3=Nc4ccccc4N(C(C)=O)C(c4ccc(F)cc4)C3=C(O)C2)c1` (stereo not drawn), the “% Inhibition @ 10 uM” value was -4.12%. Take `COc1cccc(C2CC(=O)N=C(NC(=O)c3ccc(Oc4ccccc4)cc3)N2)c1OC` (stereo not drawn): the “% Inhibition @ 10 uM” value was found to be 1.66%. Under `CCOC(=O)C1=C(C)N=c2s/c(=C\c3ccc4c(c3)OCO4)c(=O)n2C1c1ccccc1F` (stereo not drawn) stands 3.62%. Under `CN(CC(=O)Nc1nnc(S)s1)S(=O)(=O)c1cccc2cccnc12` stands 28.4%; under `CC(c1ccccc1)C1OCC(CN2CCCCC2)O1` (stereo not drawn), -2.18%; under `Cc1ccc(N(CC(=O)NCC2CCCO2)S(C)(=O)=O)cc1C` (stereo not drawn), -3.37%. With `COc1ccc(S(=O)(=O)Cc2ccc(C(=O)NCCc3ccc(S(N)(=O)=O)cc3)o2)cc1` the figure was -6.52%. Consider `CCOc1ccc(-c2nonc2NC(=O)C(CC)Oc2ccc(F)cc2)cc1OCC` (stereo not drawn), for which the “% Inhibition @ 10 uM” value was 1.9%.

Take `Brc1ccc(CN2CCN(Cc3ccccc3)CC2)cc1`: the “% Inhibition @ 10 uM” value is recorded as -0.0404%.

Take `CC(=O)c1ccc(N2CCN(Cc3ccc(O)cc3)CC2)cc1`: the “% Inhibition @ 10 uM” value is recorded as -1.41%. For the compound `CC1(C)CC(=O)C2=C(C1)N=C(S)C(C#N)C2c1ccccc1` (stereo not drawn), the “% Inhibition @ 10 uM” value is recorded as 18%. For the compound `O=C(Nc1ccccc1)N1CCN(c2ccccc2)CC1`, the “% Inhibition @ 10 uM” value is reported as 1.33%. Under `CCn1cc(CCCC(=O)NC(C)c2ccc3c(c2)OCCO3)c2ccccc21` (stereo not drawn) stands 11.7%. In the case of `CC1CC(c2csc(N)n2)CCO1` (stereo not drawn), the “% Inhibition @ 10 uM” value is listed as -0.274%. With `O=C(O)CC(=O)N[C@@H](CC1CCCCC1)C(=O)N[C@@H](CCc1ccccc1)C(=O)c1nc2ccccc2o1` the figure was -0.214%; with `Fc1ccc(COc2cccc(CNCCSc3nnnn3-c3ccccc3)c2)cc1`, 0.596%.

In the case of `CC1=NC2=C(C(=O)CCC2)C(c2ccc(Cl)cc2)/C1=C(/O)OC(C)C` (stereo not drawn), the “% Inhibition @ 10 uM” value amounted to 6.12%.

For the compound `O=C(NCc1ccc(Cl)c(Cl)c1)c1ccncc1`, the “% Inhibition @ 10 uM” value is given as -3.24%. For `N#Cc1c2c(c(NCCCO)n3c1nc1ccccc13)CCC2`, the “% Inhibition @ 10 uM” value is recorded as 22.6%. For `CCN1CCN(C(=O)C2c3ccccc3C(=O)N(CC(C)C)C2c2cccs2)CC1` (stereo not drawn), the “% Inhibition @ 10 uM” value was -5.92%. For `CC(=O)c1cc(-c2ccc(F)cc2)n(CCC(=O)NCc2cccnc2)c1`, the “% Inhibition @ 10 uM” value is given as -0.176%. With `CCO/C(O)=C1/C(C)=NC(=S)NC1C1CC=CCC1` (stereo not drawn) the figure was -6.83%; with `CCN1CCN(C(=O)C(NS(=O)(=O)c2ccc3nc(C)sc3c2)C(C)C)CC1` (stereo not drawn), -5.25%; with `Oc1ccccc1C1=NC(c2ccc(Br)cc2)NC(c2cccnc2)C1` (stereo not drawn), -4.58%. Under `CC(C)C[C@@H](C(=O)NCC#N)c1cccc(-c2ccc(N3CCN(CC(F)(F)F)CC3)cc2)c1` stands 1.7%; under `CCS(=O)(=O)C1=NN2C(=N)/C(=C\c3cc(C)n(-c4ccccc4C)c3C)C(=O)N=C2S1`, -1.54%; under `Cc1ccc(-n2nc(C)c3c2OC(N)=C(C#N)C3c2ccncc2)cc1` (stereo not drawn), 0.317%. With `O=C(Nc1ccc(-c2ccccc2)cc1)c1ccccc1NC(=O)C(F)(F)F` the figure was 1.96%; with `Cc1cc(O)c2c(C)c(CC(=O)NCc3ccco3)c(=O)oc2c1`, -0.808%; with `Cc1ccccc1C1CC(c2ccccc2OC(F)F)Nc2ncnn21` (stereo not drawn), -1.48%. On to `COC(=O)C1=CN(Cc2ccc(OC)cc2)C=C(C(=O)OC)C1c1cc(OC)c(OC)c(OC)c1`, for which the “% Inhibition @ 10 uM” value is given as 2.26%. Regarding `CC1CCCCN1C(=O)Cn1cc(C#N)c2ccccc21` (stereo not drawn), the “% Inhibition @ 10 uM” value is on record as -1.07%.

Turning to `COc1cc(NC(=O)Cn2cnc3c(=O)n(C)c(=O)n(C)c32)cc(OC)c1`, the “% Inhibition @ 10 uM” value is given as -5.35%. On to `Cc1onc(-c2c(F)cccc2Cl)c1C(=O)NCC1COc2ccccc2O1` (stereo not drawn), for which the “% Inhibition @ 10 uM” value is given as -3.83%.

Consider `c1ccc(C2=NN(c3nc(-c4ccc(-c5ccccc5)cc4)cs3)C(c3ccccc3)C2)cc1` (stereo not drawn), for which the “% Inhibition @ 10 uM” value is reported as -0.771%. With `COc1cc(Nc2nc(-c3ccccc3)cs2)c(OC)cc1Cl` the figure was 5.16%. For the compound `O=C(Nc1ccc(S(=O)(=O)N2CCCC2)cc1)c1ccccc1Cl`, the “% Inhibition @ 10 uM” value was determined as 3.53%. Under `CC1CCCCC1NC(=O)C(Cc1ccccc1)NS(=O)(=O)c1cccc2nsnc12` (stereo not drawn) stands -5.1%; under `COc1ccc(-c2cc(C(F)(F)F)n3ncc(C(=O)N4CCN5CCCC5C4)c3n2)cc1OC` (stereo not drawn), -12.4%. Under `COc1cc(OC)cc(C(=O)Nc2ccc(S(=O)(=O)Nc3cnc4ccccc4n3)cc2)c1` stands 4.11%. On to `COc1ccccc1Oc1nc2c(C)cccn2c(=O)c1/C=C(\C#N)S(=O)(=O)c1ccccc1`, for which the “% Inhibition @ 10 uM” value is recorded as -1.43%. Under `CCS(=O)(=O)N1CCN(Cc2cc(OC)c(O)c(OC)c2)CC1` stands -5.28%; under `O=C(COc1ccc(-c2cnc3ccccc3n2)cc1)c1cccs1`, -5.92%; under `Cc1ccc(OCCCn2c(=O)oc3ccccc32)cc1`, -6.51%. On to `Cn1cccc1Cc1nnc(SCC(=O)NCc2ccc(F)cc2)n1-c1ccccc1`, for which the “% Inhibition @ 10 uM” value amounted to 2.12%. With `COc1ccc(-c2cc(C)no2)cc1S(=O)(=O)NCCN1CCCCCC1` the figure was 2.69%; with `Cc1ccc(C(=O)/C=C(\O)C(=O)O)cc1`, 1.42%.

Consider `Cc1cccc(C)c1NC(=O)C1CCN(S(=O)(=O)c2ccccc2)CC1`, for which the “% Inhibition @ 10 uM” value was -3.09%. Regarding `CCCOc1ccccc1C1C2=C(CC(C)(C)CC2=O)N(CCC(=O)O)C2=C1C(=O)CC(C)(C)C2`, the “% Inhibition @ 10 uM” value came out at 0.0504%. With `COC(=O)C1=CN(Cc2ccc(Cl)cc2)C=C(C(=O)OC)C1c1ccsc1` the figure was 1.86%. Under `CCOC(=O)N1CCN(C(=O)Cn2ncc3c4ccccc4n(Cc4ccccc4)c3c2=O)CC1` stands 4.95%.

Take `Cc1cc(N)n2ncc(-c3ccccc3)c2n1`: the “% Inhibition @ 10 uM” value is recorded as -0.169%. Under `CCCCCCNc1nc(NCc2ccco2)nc(OCC)n1` stands 0.884%; under `COc1ccc(C2SCCN2S(=O)(=O)c2cc(OC)c(C)cc2C)cc1` (stereo not drawn), 15.9%; under `Cc1cc(NC(=O)c2ccc(NC(=O)C3CC3)cc2)no1`, 1.19%. With `COc1ccc(Cn2c(CCC(=O)NCc3ccco3)nc3cccnc32)cc1` the figure was -8.68%; with `COc1ccccc1N1CCN(C(=O)c2ccc(Cl)c([N+](=O)[O-])c2)CC1`, 1.96%. Under `Cc1ccc(CCNC(=O)Cn2nc(Cc3ccncc3)c3ccccc3c2=O)cc1` stands -2.92%; under `O=C(NCc1ccco1)c1ccc(CN2C(=O)CCn3nccc32)cc1`, -11.1%; under `Cn1c(=O)c2sccc2n2c(CCCC(=O)NCC3CCCO3)nnc12` (stereo not drawn), -5.05%.

The values above are taken from PMC6919601, “Identification of Plasmodium dipeptidyl aminopeptidase allosteric inhibitors by high throughput screening” (PLoS ONE, 2019).
